# In all, about 220,000 compounds went through this assay and about 16,000 (7.3%) were called active. The inconclusive results got no clear call from the source; some entries with a clear call stand among them for comparison. Calls come from the whole dose curve; as a rule, active = well fitted inhibition curve with a large enough effect (not every such curve was filed as active); inconclusive = small, poorly fitted or top-dose-only effect, or another doubt; inactive = no such curve, though single readings can be large or run the other way. No potency is given beside an inconclusive call; the fits are too rough.
# Target: Aldehyde dehydrogenase 1A1 (Homo sapiens) (UniProt P00352)
# Experiment: qHTS Assay for Inhibitors of Aldehyde Dehydrogenase 1 (ALDH1A1);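 for activity, negative = inhibition: plate controls were no enzyme wells and a reference inhibitor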
# Conditions: Purified ALDH1A1, NADH fluorescence, propionaldehyde substrate; series mostly up to 75.3 µM
# Potency is the fitted concentration of half-maximal effect; tags give direction and shape of the fitted curve.
# UniProt P00352, sequence (P00352 whole entry, looked up): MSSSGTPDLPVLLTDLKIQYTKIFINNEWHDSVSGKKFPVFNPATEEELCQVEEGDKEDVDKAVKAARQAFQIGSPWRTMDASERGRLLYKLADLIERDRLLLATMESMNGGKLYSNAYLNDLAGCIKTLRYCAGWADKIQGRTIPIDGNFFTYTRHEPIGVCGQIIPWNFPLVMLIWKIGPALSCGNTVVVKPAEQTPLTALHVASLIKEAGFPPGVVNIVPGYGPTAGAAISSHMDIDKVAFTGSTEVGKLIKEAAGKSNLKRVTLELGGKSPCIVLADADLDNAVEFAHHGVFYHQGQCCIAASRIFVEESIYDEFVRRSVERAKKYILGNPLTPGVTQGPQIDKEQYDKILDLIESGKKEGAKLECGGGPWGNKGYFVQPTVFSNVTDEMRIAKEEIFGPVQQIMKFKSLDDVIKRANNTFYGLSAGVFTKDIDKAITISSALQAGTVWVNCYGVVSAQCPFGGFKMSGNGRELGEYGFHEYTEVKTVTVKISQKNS
SMILES,Potency,"activity, negative = inhibition"
Cc1ccccc1NC1=NCC(c2ccc([N+](=O)[O-])cc2)S1 (stereo not drawn),inactive,
CC(NC(=O)c1ccccc1NC(=O)c1ccncc1)c1ccccc1 (stereo not drawn),active: 28.2 µM,
Cc1ccc(C(=O)Nc2ccc3c(c2)OCO3)cc1NC(=O)c1ccco1,"inconclusive [inhibitor, single point]",
CC1CCN(S(=O)(=O)N2CCC(C(=O)NCc3cccs3)CC2)CC1,"inconclusive [inhibitor, single point]",
CCc1nnc(NS(=O)(=O)c2ccc(N/C=C\C(=O)c3cccc4ccccc34)cc2)s1,"inconclusive [inhibitor, single point]",
Cn1c2c(c(=O)[nH]c1=O)C(c1cccc(O)c1)C1=C(N2)c2ccccc2C1=O (stereo not drawn),inactive,
CCN1C(=O)c2cccc3c(S(=O)(=O)Nc4nc(C)cs4)ccc1c23,active: 3.55 µM,
C[C@H]1Cc2c(COc3ccccc3)nc3c(c2CO1)CN(C(=O)NCc1ccco1)CC3,,inactive: -1.72% [at 13.5 µM]
CC1(C)CC(n2c(NCCO)nc3c(c2=O)C2(CCCC2)Cc2ccccc2-3)CCO1 (stereo not drawn),"inconclusive [inhibitor, partial curve]",
COc1ccccc1S(=O)(=O)Cc1ccc(C(=O)N2CCN(c3ccccn3)CC2)o1,inactive,
COc1ccc(/C=C/C(=O)O/N=C(\N)c2ccccc2)cc1OC,"inconclusive [inhibitor, single point]",
O=C(NCCCn1ccnc1)c1sc2cccc(F)c2c1Cl,active: 28.2 µM,
C=CC[C@@](C(C)=O)(C(=O)OC)C(NC(=O)OC)c1ccccc1 (stereo partly drawn),inactive,
CCn1c(CNC(=O)COc2ccc(C(C)C)cc2)nnc1SCC(=O)Nc1ccccc1,"inconclusive [inhibitor, single point]",
O=C(CSc1ccccn1)Nc1ccc(Cl)cn1,"inconclusive [inhibitor, single point]",
Cc1ccc2c(CC(=O)NCc3ccc4c(c3)OCO4)coc2c1,active: 4.47 µM,
CC(=O)Oc1cccc(/C=c2\sc3nc(-c4ccco4)nn3c2=O)c1,"inconclusive [inhibitor, single point]",
C=CCNC(=O)c1sc(-c2ccccc2)nc1C,inactive,
Cc1ccc(Nc2c(-c3ccc(N4CCOCC4)cc3)nc3ncccn23)cc1,"inconclusive [inhibitor, single point]",
CC(C)N1C(=O)/C(=C\c2nc3ccccc3c(=O)[nH]2)c2ccccc21,active: 12.6 µM,
COc1ccc(-c2csc3ncn(-c4ccccc4)c(=O)c23)cc1OC,active: 7.94 µM,
Cc1ccc(C2(c3noc(CN4CCC(c5ccncc5)CC4)n3)CCCC2)cc1,"inconclusive [inhibitor, single point]",
O=C(Nc1ccc(C(=O)N2CCCCC2)cc1)c1ccc(Br)cc1,active: 14.1 µM,
Cc1nc2ccccc2c(=O)n1C1CCCCCC1,inactive,

SMILES,Potency,"activity, negative = inhibition"
CCCCc1nnc(NC(=O)c2nc3nccc(C)n3n2)s1,inactive,
O=C1NC(=Nc2cccc(Cl)c2)SC1Cc1cccc(Cl)c1Cl (stereo not drawn),inactive,
CC12CCC(C(=O)NNc3ccc([N+](=O)[O-])cc3)(CC1=O)C2(C)C (stereo not drawn),"inconclusive [inhibitor, single point]",
CCOC(=O)c1cnc(SCC(C)C)nc1N,"inconclusive [inhibitor, partial curve]",
Cc1ccc(-c2cc(C(=O)N/N=C/c3ccco3)[nH]n2)cc1,inactive,
CC(=O)c1c(C)[nH]c(C(=O)CSc2nnc(C)s2)c1C,inactive,
S=C(NCC1CCCO1)N1CCN(c2ccc(Cl)c(Cl)c2)CC1 (stereo not drawn),"inconclusive [inhibitor, single point]",
CCOC(=O)c1ccc(Nc2nnc3nc(C)cc(C)n23)cc1,"inconclusive [inhibitor, single point]",
S=C(NCc1ccc(Cl)cc1)Nc1ccc(Cl)cc1Cl,inactive,
N#Cc1nc(-c2ccc(Cl)cc2)oc1NCC1CCCO1 (stereo not drawn),"inconclusive [inhibitor, partial curve]",
CS(=O)(=O)Nc1ccc(C2=NN(C(=O)C3CCCCC3)C(c3cccs3)C2)cc1 (stereo not drawn),"inconclusive [inhibitor, partial curve]",
Cc1ccc(CCCOC(=O)C[N+]2(C)CCCCC2)cc1,inactive,
COc1cc(NS(C)(=O)=O)ccc1Nc1c2ccccc2nc2ccccc12,"inconclusive [inhibitor, single point]",
CN(C)c1cccc(C(=O)OCC(=O)N2CCc3ccccc3C2)c1,"inconclusive [inhibitor, partial curve, poor fit]",
CS(=O)(=O)Nc1cccc(-c2nccc(NCc3cccs3)n2)c1,"inconclusive [inhibitor, single point]",
O=c1[nH]c(=S)[nH]c2c1C(c1cc([N+](=O)[O-])c(N3CCOCC3)cc1N1CCOCC1)O2 (stereo not drawn),"inconclusive [inhibitor, partial curve]",
COc1ccc(NC(=S)Nc2cccc([N+](=O)[O-])c2)cc1,inactive,
O=C(Cc1ccccc1)N1CCc2ccccc21,"inconclusive [inhibitor, single point]",
COc1cc(/C=C2\C(=O)NN(c3ccccc3)C2=O)ccc1OCC(N)=O,"inconclusive [inhibitor, partial curve]",
Cc1occc1C(=O)N/N=C/C1=C(N2CCOCC2)C(=C\c2ccc(Cl)cc2)/CC1,"inconclusive [inhibitor, single point]",
CC(=O)Nc1ccc(NC(C)=O)s1,inactive,
O=C(NCc1ccco1)c1scc2c1OCCO2,active: 22.4 µM,
Cc1ccc(C(=O)N2CCN(C3CCCCC3)CC2)s1,"inconclusive [inhibitor, partial curve]",
CCc1cc2c(=O)c(-c3nc4ccccc4n3C)c(C)oc2c(CN2CCOCC2)c1O,"inconclusive [inhibitor, single point]",

# Source: PubChem BioAssay AID1030 (National Center for Advancing Translational Sciences (NCATS), 2008)
